From PubChem BioAssay AID1240 (Sanford-Burnham Center for Chemical Genomics, 2008) come the findings set out here.

The structures appear in SMILES notation. Out of some 50,000 compounds screened, about 800 (1.6%) showed an effect of 50% or more. The list shows a part of the results.

This experiment has as its target Bcl-2-like protein 10 (Homo sapiens) (UniProt Q9HD36). Briefly: TR3 peptide-Bcl-B binding displacers, biochemical primary FP assay, phenotype converters (AID 1240).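 Also: 0% = Bcl-B with tracer peptide and DMSO and 100% = tracer peptide lacking Bcl-B.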 The note with it: GST-Bcl-B / FITC-TR3 peptide fluorescence polarization; stronger effect = higher value; compound at 3.75 mg/L. (In general: Polarisation of emitted light reports the rotation of a fluorescent probe.)
Chain of UniProt Q9HD36 (Q9HD36 whole entry, looked up): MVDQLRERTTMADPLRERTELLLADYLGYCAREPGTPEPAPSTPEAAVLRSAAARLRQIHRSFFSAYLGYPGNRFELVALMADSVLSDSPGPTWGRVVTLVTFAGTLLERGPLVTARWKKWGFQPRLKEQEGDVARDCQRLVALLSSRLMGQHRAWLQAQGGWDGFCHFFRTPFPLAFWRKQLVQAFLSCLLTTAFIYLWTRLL
As for `COc1ccc(Cl)cc1C(=O)Nc1cc([N+](=O)[O-])ccc1Cl`, the displacement amounted to 4.4%.

Turning to `COc1cc(C(=O)NC(NC(=S)Nc2ccc(C)cc2)C(Cl)(Cl)Cl)cc(OC)c1OC` (configuration not stated), the displacement is -3.2%.

Turning to `Cc1ccc([N+](=O)[O-])cc1NC(=O)COc1ccccc1Cl`, the displacement is -8.6%.

As to `O=C(/C=C\Nc1ccc([N+](=O)[O-])cc1Br)c1ccc2c(c1)OCO2`, the displacement is 3%.

`COc1ccc(CNS(=O)(=O)c2ccc3ccccc3c2)cc1`: the displacement was -1.2%.

With `CC(C)(C)CC(C)(C)NC(=O)CSc1ncc(-c2ccccc2)[nH]1`, the displacement was -1.7%.

In the case of `O=C(COc1ccccc1[N+](=O)[O-])Nc1ccc(Cl)c(Cl)c1`, the displacement was found to be 12.1%.

For `CCOc1ccc(N/C=C\C(=O)c2ccc(F)cc2)c([N+](=O)[O-])c1`, the displacement is 5.1%.

Regarding `O=[N+]([O-])c1ccc(/C=N/NS(=O)(=O)c2ccc(Cl)cc2)cc1`, the displacement was -0.3%.

Consider `COc1ccccc1N1CCN(C(=O)CN(c2cc(Cl)ccc2OC)S(=O)(=O)c2ccc(C)cc2)CC1`, for which the displacement was found to be 9.1%.

For the compound `COc1ccc(CN2CCN(S(C)(=O)=O)CC2)c(OC)c1`, the displacement worked out at 5.6%.

Turning to `O=c1oc2cc([N+](=O)[O-])ccc2nc1/C=C(\O)c1cccs1`, the displacement came to 94%.

On to `CCOC(=O)C1=C(O)/C(=C/c2cccnc2)SC1=Nc1cccc2ccccc12`, for which the displacement amounted to 31.1%.

As to `CCNC(=O)CC1S\C(=N/N=C/C=C/c2ccccc2)NC1=O` (configuration not stated), the displacement is 10%.

Regarding `O=C(COc1ccc(Br)cc1)Nc1cccc(Cl)c1`, the displacement is -7.8%.

As to `CC(=O)Nc1c(C)cc(C2(c3cc(C)c(NC(C)=O)c(C)c3)CCCCC2)cc1C`, the displacement is 18.4%.

As to `CN(C)c1ccc([N+](=O)[O-])cc1/C=N/NC(=O)CCc1ccccc1O`, the displacement worked out at 2.5%.

In the case of `CC(C)N=C1NS(=O)(=O)c2cc([N+](=O)[O-])ccc21`, the displacement worked out at 8.4%.

`Cc1nn(-c2cc(Cl)ccc2Cl)c(C)c1-c1cccc([N+](=O)[O-])c1`: the displacement turned out to be 0.5%.

As for `CC1=C(C(=O)OCCOc2ccccc2)C(c2ccc(C)o2)C2=C(CC(C)(C)CC2=O)N1` (configuration not stated), the displacement is -12.8%.

Regarding `c1cc(CN2CCN(C3CCCCC3)CC2)ccn1`, the displacement is -6.4%.

For the compound `CCCC(=O)Nc1ccc(NC(=O)c2ccc([N+](=O)[O-])o2)cc1`, the displacement was -1.2%.

In the case of `O=C(O)CCCC(=O)N(Cc1ccccc1)Cc1ccccc1`, the displacement is -11%.

In the case of `Cc1ccc(C(=O)N/C(=C/c2ccccc2Cl)C(=O)Nc2ccc(S(=O)(=O)Nc3nccs3)cc2)cc1`, the displacement is -0.9%.

As to `COc1cccc(/C=N/NC(=O)c2cc(-c3ccc4ccccc4c3)n[nH]2)c1`, the displacement is -7.4%.

Turning to `O=C(CN1C(=O)/C(=C/c2ccc(Br)cc2)SC1=S)Nc1ncc(Cc2cccc([N+](=O)[O-])c2)s1`, the displacement amounted to 17.9%.

Take `CC(=O)N/C(=C/c1ccc2c(c1)OCO2)C(=O)NC(Cc1ccccc1)C(=O)O` (configuration not stated): the displacement was 2.7%.

As to `O=C(Nc1cccc(Cl)c1Cl)C1CN(S(=O)(=O)c2ccccc2)CCN1S(=O)(=O)c1ccccc1` (configuration not stated), the displacement is 13.6%.

Regarding `N#Cc1c(N)c(C(=O)c2ccc(Br)cc2)n2c1CCC2`, the displacement stood at 6.7%.

Regarding `O=C(Nc1nc(-c2ccc(F)cc2F)cs1)c1c(F)cccc1F`, the displacement is -7.5%.

As for `COc1ccc(Cl)cc1NC(=O)C1=C(C)NC(=S)NC1c1ccccc1F` (configuration not stated), the displacement turned out to be 14.5%.

With `Fc1c(F)c(C(F)(F)F)c(F)c(F)c1Oc1cccc2cccnc12`, the displacement is 29.7%.

For `COc1ccc(Br)cc1CN1CCN(C(=O)c2ccc(-c3ccccc3)cc2)CC1`, the displacement came out at 10.6%.

As for `CCOC(=O)c1ccc(-n2c(C)cc(/C=C3\NC(=O)NC3=O)c2C)cc1`, the displacement turned out to be 10%.

Take `CC(C)C(=O)Nc1ncc2c(n1)CC(c1ccccc1)CC2=O` (configuration not stated): the displacement was -4.4%.

For the compound `CC(=O)Nc1ccc(N=Cc2ccncc2)cc1`, the displacement worked out at 6.2%.

Consider `CCC(Oc1ccccc1)C(=O)NCc1ccccc1` (configuration not stated), for which the displacement is -6.5%.

Take `CCc1ccc(OCCNC(=O)CN(c2ccc(C)cc2)S(C)(=O)=O)cc1`: the displacement is -5.8%.

For the compound `Brc1ccc(-c2cs/c(=N/c3ccccn3)n2-c2ccccc2)cc1`, the displacement is 7.9%.

Turning to `COc1ccc(-c2c(Cc3ccccc3)[nH]n3c(=O)c4c(nc23)CCC4)cc1`, the displacement was -3.3%.

Regarding `Cn1cnnc1SCC(=O)n1c2ccccc2c2ccccc21`, the displacement was -3%.

Regarding `Cc1cc(NC(=O)c2ccccc2Br)no1`, the displacement is 2.2%.

For `O=[N+]([O-])c1ccc2c(c1)C=C1CCCCC1(NCc1ccccc1)O2` (configuration not stated), the displacement came out at 2%.

For the compound `Cc1sc(NC(=O)C2CC2c2ccccc2)c(C#N)c1C` (configuration not stated), the displacement is -0.9%.

Regarding `N/N=C1/NC(=O)C(Cc2cccc([N+](=O)[O-])c2)S1` (configuration not stated), the displacement worked out at 5.5%.

For the compound `CC12CC3CC(O)(C1)CC(C(=O)O)(C3)C2` (configuration not stated), the displacement was 3.2%.

`CC(=O)Nc1cccc(NS(=O)(=O)c2ccc([N+](=O)[O-])cc2)c1`: the displacement was 5.6%.

Consider `S=C(c1cn(-c2ccccc2)nc1-c1cccs1)N1CCOCC1`, for which the displacement turned out to be 12.2%.

For the compound `CC(C)N1CCc2c(sc3nc(SCc4ccc(Cl)cc4)n(-c4ccccc4)c(=O)c23)C1`, the displacement is -11.9%.

As to `CC(=O)OC(OC(C)=O)C12C=CC(O1)C1C(=O)N(c3cccc([N+](=O)[O-])c3)C(=O)C12` (configuration not stated), the displacement is -19.6%.

For the compound `CC1=C(C(=O)OCCOc2ccccc2)C(c2ccccc2F)C2=C(CCCC2=O)N1` (configuration not stated), the displacement was -1.3%.

Turning to `CS(=O)(=O)N1CCN(c2ccc([N+](=O)[O-])c(N3CCOCC3)c2)CC1`, the displacement is -6%.

As to `CCCN(CCC)C(=O)c1ccccc1NC(=O)c1cccnc1`, the displacement is -0.2%.

With `CN1CCC(O)(c2ccccc2)C(C)(C)C1` (configuration not stated), the displacement was -9.2%.

For `CCOC(=O)C1=C(C)NC(=S)NC1c1ccc(Cl)c(Cl)c1` (configuration not stated), the displacement was -2.8%.

For `COc1ccc(N2CC(C(=O)N/N=C/c3ccc([N+](=O)[O-])cc3)CC2=O)cc1` (configuration not stated), the displacement amounted to 1.6%.

Consider `COC(=O)c1ccc(N(Cc2ccc(Cl)cc2)S(C)(=O)=O)cc1`, for which the displacement came to 7.6%.

As to `CCCCC(O)(CCCC)c1ccccc1O`, the displacement was -2.8%.

As to `CC(C)C(=O)Nc1ccc(Cl)c(-c2nc3ccccc3[nH]2)c1`, the displacement was -12%.

Take `CC(Oc1ccc(Cl)cc1Cl)C(=O)N1CCN(Cc2ccccc2)CC1` (configuration not stated): the displacement is -1.6%.

Consider `O=C(c1nn2c(C(F)(F)F)cc(-c3ccccc3)nc2c1Cl)N1CCCCC1`, for which the displacement was -8.7%.

On to `COC(=O)C1=C(C)NC(=O)NC1c1ccccc1F` (configuration not stated), for which the displacement worked out at 2.7%.

Take `CC1=C(C(=O)Nc2ccc(C)cc2)C(c2ccc(Cl)cc2)NC(=S)N1` (configuration not stated): the displacement was -2.8%.

As to `Cc1ccc(-c2n[nH]c3nc(C)cc(=O)n23)cc1`, the displacement is -4.9%.

As for `O=c1c2c(nc3cc(-c4ccc(Cl)cc4)[nH]n13)CCS2`, the displacement was determined as 115%.

For the compound `CC(C)NC(=O)c1ccc(Cl)c(Cl)c1`, the displacement was determined as 14%.

For the compound `C=CCc1ccccc1OCCOc1c(Br)cc(/C=c2\sc3nc4ccccc4n3c2=O)cc1OC`, the displacement was found to be 12.4%.
